# According to the supplement of paper PMC7826260:
# The list shows a part of the results. Each Rep nickase domain was tested in vitro on the same pool of single strands (1 h at 37 °C, 3 µM enzyme); the outer parts of the 90-letter strands are left off. Values are log2 of uncut reads against the no-enzyme pool; strong cutting gives strongly negative numbers. There is no active / inactive call. The scaling is to total reads; values above 0 arise when much of the pool is cut.
# System: T1, Rep nickase domain of tomato golden mosaic virus
# T1 sequence (residues 1-124 of Rep, tag left off): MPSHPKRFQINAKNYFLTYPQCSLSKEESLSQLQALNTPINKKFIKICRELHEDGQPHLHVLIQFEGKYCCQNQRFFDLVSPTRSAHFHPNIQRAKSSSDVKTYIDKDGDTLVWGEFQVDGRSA
# Assay: uncleaved DNA left, log2 of reads against the no-enzyme library (log2 ratio); higher = less cleavage (more negative = more Rep cleavage of the k-mer); sequences stand for … in CTCGTCCG…ACCGGAGA
# Experimental: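 A pool of 90-nt single-stranded DNAs with seven random bases just before the constant AC of the nick site (name = the seven bases) was cut by 3 µM recombinant His6-SUMO-tagged Rep nickase domain (300 nM DNA, 50 mM HEPES pH 8.0, 50 mM NaCl, 1 mM MnCl2, 1 h, 37 °C, three replicates). Uncut DNA was amplified and sequenced.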
row,Sequence,uncleaved DNA left (log2)
1,CCAGAAC,0.0135
2,TTTAGCC,-0.0429
3,TCCTCGT,-0.0421
4,GACCACA,0.0818
5,AGCCTTA,0.0205
6,TACGCGG,0.0323
7,GGGCACC,-0.00214
8,TCTCGAG,-0.159
9,AGCCCAC,0.0514
10,GGACGCC,0.0826
11,TGGAGGG,0.108
12,CTACTGC,-0.164
13,GAGGGTT,-0.00887
14,TCACGTC,-0.108
15,GGATATT,0.0267
16,ACTTTTT,-0.1
17,CAAAGCA,-0.0549
18,CAAGGGC,0.0278
19,ACTTATG,-0.0564
20,AAGGAGG,0.231

row,Sequence,uncleaved DNA left (log2)
1,GTCGAAG,0.0983
2,TAAAAAC,-0.0493
3,CACTGCG,-0.208
4,ACGCTAC,-0.0334
5,ACACCTG,0.154
6,TCCAATA,0.0277
7,ACAACTG,0.0337
8,CCTCGCC,-0.134
9,GCTTTGC,-0.0694
10,GCTGTAT,0.0236
11,CGTGGTG,0.0236
12,AACGCTC,0.0615
13,AGTGCCG,-0.258
14,AGATCCT,0.0521
15,TGCGTGT,-0.106
16,GGAACGC,0.269
17,AAACACG,-0.0165
18,CTACCAC,-0.222
19,TTTGAGC,-0.186
20,TCGAGTG,0.208
